Measured values as given in PubChem BioAssay AID1347120 (National Center for Advancing Translational Sciences (NCATS), 2019).
In all, about 390,000 compounds went through this assay and about 930 (0.24%) were called active. Inconclusive means that the source gave no clear call. Such entries were picked first, then a sample of the others. The call rests on the fitted dose curve; in most records, active means well fitted activation curve with a large enough effect; inconclusive means small, poorly fitted or top-dose-only effect; inactive means no such curve, though single readings can be large or run the other way. A potency beside an inconclusive call is a rough fit, not a confirmed value.

assay: qHTS for Suppressors of FUS Proteinopathy: Primary screen using FUS-linked yeast assay; further: nearly all actives have a fitted effect of over 55% in size;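 on growth rescue (activation): plate controls were DMSO vehicle for no effect and reference control for full effect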; details: S. cerevisiae FUS-expressing, OD600, 24 h; Potency: growth rescue; growth rescue (activation): at 76.6 µM (top of the series)
Method in brief: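 S. cerevisiae expressing FUS from galactose induction served as the toxicity model. Growth after 24hr at 30C, read as absorbance at 600 nm, indicates suppression of toxicity; compounds dosed at several concentrations.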
Potency means the concentration at half of the fitted maximal effect; tags describe the fitted curve by direction and shape.

Structure (SMILES) | growth rescue (activation) | Potency
O=S(=O)(c1ccc(Cl)cc1)N1CCN(c2ccc(N3CCOCC3)nn2)CC1 | inactive: -1.4% | –
CC1(Cc2cc(Cl)ccc2C(F)(F)F)C(=O)Nc2ccc(-c3ccc(F)c(Cl)c3)cc21 (stereo not drawn) | – | inconclusive: 50.1 µM [activator, single point]
NC(=O)[C@@H]1CCOc2c(I)cc([N+](=O)[O-])cc2C(=O)N[C@@H](CO)C(=O)NCC(=O)N1 | inactive: 17.1% | –
CCOc1ccccc1NC(=O)CN1c2ccccc2S(=O)(=O)c2ccccc21 | inactive: 3.73% | –
CC(C)(C)c1ccc(-c2csc(NNC3=NCCCCC3)n2)cc1 | – | inconclusive: 20 µM [activator, partial curve, poor fit]
COc1cccc2c1Oc1ncccc1N(C(=O)Nc1cccc(Cl)c1)C2 | inactive: 16.8% | –
C[C@H](CO)N1C[C@H](C)[C@@H](CN(C)Cc2ccc(Cl)c(Cl)c2)Oc2c(NS(=O)(=O)c3ccc(F)cc3)cccc2C1=O | – | inconclusive: 25.1 µM [activator, single point]
CC(=O)OCCN1CCN(C(=O)CN2C(=O)NC(c3ccccc3)(c3ccccc3)C2=O)CC1 | – | inconclusive: 11.2 µM [activator, single point]
O=C(NCC(=O)N1CCN(S(=O)(=O)c2ccc3c(c2)OCCO3)CC1)c1ccccc1F | – | inconclusive: 50.1 µM [activator, single point]
COc1ccc(-c2nn(-c3ccccc3)cc2C(=O)N(C)CC(=O)Nc2ccccc2Br)cc1 | – | inconclusive: 20 µM [activator, partial curve]
CC(=O)NC12CC3CC(C1)CC(C(=O)Oc1ccc(N(C)S(=O)(=O)c4cc(C)ccc4C)cc1)(C3)C2 | – | inconclusive: 14.1 µM [activator, partial curve, poor fit]
O=C(O)c1cc([N+](=O)[O-])ccc1NCCCc1ccccc1 | inactive: -7.47% | –
O=C(NN=C1C2CC3CC(C2)CC1C3)c1cc(Cl)ccc1O | inactive: 7.19% | –
O=C(NCc1ccccc1)c1ccc(NC(=O)C2CCCCC2)cc1 | inactive: -13% | –
Cc1cc(NC(=O)Cn2nnc3sc4c(c3c2=O)CCC(C(C)(C)C)C4)no1 (stereo not drawn) | – | inconclusive: 31.6 µM [activator, partial curve, poor fit]
CCCCC(=O)OC1=C(C(=O)c2ccccc2)N(CC)S(=O)(=O)c2ccccc21 | inactive: 18.6% | –
CCCCN(C)C(=O)c1cc2c(Cl)nc3ccccc3c2s1 | – | inconclusive: 25.1 µM [activator, partial curve]
COC(=O)[C@]12C[C@H](CC(=O)N3CCN(C(=O)c4ccco4)CC3)C(=O)N(Cc3cccc4ccccc34)C1=C[C@H](C(C)(C)C)O[C@@H]2C | – | inconclusive: 35.5 µM [activator, partial curve, poor fit]
